The values that follow come from PubChem BioAssay AID1508642 (National Center for Advancing Translational Sciences (NCATS), 2021).

The structures appear in SMILES notation. The whole screen tested about 43,000 compounds, of which about 200 (0.47%) were called active. About 12% were inconclusive and are not listed. The call rests on the fitted dose curve; in most records, active means well fitted cell-killing curve with a large enough effect; inconclusive means small, poorly fitted or top-dose-only effect, or effect the other way; inactive means flat fitted curve, though single readings scatter. This is one part of the list.
On the % scale 0 is the no-effect control and ±100 the full control effect.

The nature of the test: Cell viability qHTS assay in S16 Pmp22-F2sN cells. Further: nearly all actives have a fitted effect of over 65% in size. The note with it: S16 Pmp22-F2sN Schwann cells viability, CellTiter-Glo, 24 h; series mostly up to 57.5 µM; activity change, negative = cytotoxicity: at the top concentration. Put shortly:
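S16 Pmp22-F2sN Schwann cells (500-1,000/well) in phenol-red-free DMEM with 10% FBS received 23 nL compound by pin tool for 24 h at 37 °C. Viability was then read as CellTiter-Glo luminescence after 15 min at room temperature.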
Take `Cc1ccc(-n2c(=O)c3ccccc3n(CC(=O)Nc3cccc(C(F)(F)F)c3)c2=O)cc1`: the “activity change, negative = cytotoxicity” value was inactive: -17.9%.
Next, `O=C(c1ccccc1)N1CCCCC1CCN1CCCCC1` (stereo not given): inactive: 16.3%; `O=C(Nc1ccc2nc(SCC(=O)N3CCOCC3)sc2c1)c1ccc(Cl)cc1`: inactive: -3.89%; `CCN(Cc1ccccc1)C(=O)C(CC(C)C)NS(=O)(=O)c1ccc2c(c1)CCN2C(C)=O` (stereo not given): inactive: -4.21%.
As for `COc1cccc(N2CCN(c3ncnc4onc(-c5ccc(Cl)cc5)c34)CC2)c1`, the figure is inactive: 6.51%; as for `N#C/C(=C\c1ccc(Cl)cc1)c1nc(-c2cc3c(ccc4ccccc43)oc2=O)cs1`, inactive: 20.1%.
Next, `O=C(Cn1c(=O)n(-c2ccccc2)c(=O)c2sc3ccccc3c21)NC1CCCC1`: inactive: 4.94%.
Turning to `CN(C)c1ccc(CNC(=O)c2sc3ncccc3c2-n2cccc2)cc1`, the “activity change, negative = cytotoxicity” value is inactive: -0.609%.
As for `Cc1cc(C)cc(NC(=O)CCN2C(=O)c3ccccc3Sc3ncccc32)c1`, the figure is inactive: 4.02%; as for `CSc1ccc(CNC(=O)Cn2ccc3cc(S(=O)(=O)N4CCCC4)ccc32)cc1`, inactive: -1.79%.
Regarding `COc1ccccc1CNC(=O)CS(=O)(=O)Cc1nc(-c2ccccc2C)oc1C`, the “activity change, negative = cytotoxicity” value was inactive: 25.6%.
As for `CN(C)c1ccc(C(=O)NCc2ccc3c(c2)CCN3C(=O)c2ccccc2)cc1`, the figure is inactive: -27.7%.
For `CC(C)CCNC(=O)CSc1nc2ccccc2nc1Cc1ccc(Cl)cc1`, the “activity change, negative = cytotoxicity” value is inactive: 8.3%.
As for `COCCn1c(C)cc(O)c(C(c2ccc(Cl)cc2)N2CCCCC2)c1=O` (stereo not given), the figure is inactive: 3.88%; as for `Cc1cc(C)c(NC(=O)CN2C(=O)CCSc3ccc(S(=O)(=O)N4CCCC4)cc32)c(C)c1`, inactive: 1.08%.
Next, `COc1cccc(CNC(=O)CN2C(=O)CSc3ccc(S(=O)(=O)N4CCCC4)cc32)c1`: inactive: -1.68%; `COc1ccc(C2C(=O)N(C3CCCCC3)CC(=O)N2C2CCCCC2)cc1` (stereo not given): inactive: 10.6%.
Next, `Cc1ccc(-c2cc(C(F)(F)F)c(C#N)c(SCC(=O)Nc3ccccc3F)n2)cc1`: inactive: -8.21%; `CCN(c1ncnc2c1cnn2-c1cccc(Cl)c1)C1CCCCC1`: inactive: 15.8%; `O=C(Nc1ccc2nc(SCC(=O)N3CCOCC3)sc2c1)c1ccccc1Cl`: inactive: -1.37%.
Regarding `Cc1cccc(OCC(=O)Nc2ccccc2OCc2cc(=O)n3cc(C)ccc3n2)c1`, the “activity change, negative = cytotoxicity” value was inactive: 6.27%.
As for `CCn1ccc2cc(S(=O)(=O)N3CCC(C(=O)NCc4ccc(F)cc4)CC3)ccc21`, the figure is inactive: 11%.
As for `Cc1ccc(NCc2cccn2-c2nnc(N3CCC(C(=O)NCc4ccc(F)cc4)CC3)s2)cc1`, the figure is inactive: -24.2%.
Consider `Cc1ccn2c(Nc3ccccc3C)c(-c3ccccc3)nc2c1`, for which the “activity change, negative = cytotoxicity” value was inactive: -12.7%.
Next, `COc1cccc(NC(=O)Cn2c(=O)n(Cc3ccco3)c(=O)c3cc(OC)c(OC)cc32)c1`: inactive: 13.5%.
As for `O=C(Cn1c(=O)n2nc(-c3cccc(F)c3)nc2c2ccccc21)NCc1ccc(Cl)cc1`, the figure is inactive: 0.956%; as for `Cc1ccccc1NC(=O)c1c(NC(=O)c2cccs2)sc2c1CCC(C)C2` (stereo not given), inactive: -1.7%; as for `O=C(Nc1ccc2nn(-c3ccc(Cl)cc3)nc2c1)c1cc2ccccc2o1`, inactive: -2%.
Next, `N#Cc1nc(/C=C/c2ccc(F)cc2)oc1NC1CCCCC1`: inactive: 5.3%; `CCc1cccc(C)c1NS(=O)(=O)c1ccc(-c2cc(C)no2)s1`: inactive: -3.43%; `Cc1cccc(NC(=O)c2c(N)sc3c2CCC(C)C3)c1` (stereo not given): inactive: 4.57%.
Regarding `CCOC(=O)c1cc(-c2ccccc2)n(CCC(=O)NCCc2ccc(OC)c(OC)c2)c1C`, the “activity change, negative = cytotoxicity” value is inactive: -11.7%.
Regarding `COc1ccc(-c2nc3cc(NC(=O)c4cc5ccccc5o4)ccc3o2)cc1`, the “activity change, negative = cytotoxicity” value was inactive: 4.02%.
As for `COc1ccc(N(C)C(=O)C2CCN(S(=O)(=O)c3cc(Br)cc4c3N(C(C)=O)CC4)CC2)cc1`, the figure is inactive: -15.5%.
Next, `Cc1ccc(OCc2cc(=O)n3ccsc3n2)c(NC(=O)c2ccco2)c1`: inactive: -0.252%; `CCOc1ccc(NC(=O)CC2C(=O)N(c3ccc(C)cc3)C(=O)N2Cc2ccc(OC)cc2)cc1` (stereo not given): inactive: -5.53%.
Next, `COc1ccc(OC)c(NC(=O)N(C)CCc2c(C)nn(C)c2C)c1`: inactive: -3.16%; `CCC(=O)N1CCc2cc(Br)cc(S(=O)(=O)N(CC)Cc3ccccc3)c21`: inactive: 18.9%.
`CCOc1ccc(NC(=O)c2c(NC(=O)c3ccccc3Br)sc3c2CCC(C)C3)cc1` (stereo not given): the “activity change, negative = cytotoxicity” value was inactive: 7.44%.
For `CCCCN(C)S(=O)(=O)c1cc(-c2cc(C)no2)ccc1C`, the “activity change, negative = cytotoxicity” value was inactive: -10.4%.
For the molecule `CCOc1ccc(S(=O)(=O)NCC(c2ccc(N(C)C)cc2)N2CCc3ccccc32)cc1` (stereo not given), the “activity change, negative = cytotoxicity” value was inactive: 6.24%.
Next, `Cc1cc(-c2nc3ncccc3o2)ccc1NC(=O)c1ccc(Cl)cc1`: inactive: 0.337%.
As for `COC(=O)CSc1ccc2nnc(CCNS(=O)(=O)c3ccccc3)n2n1`, the figure is inactive: -2.27%.
Next, `CCc1cccc(C)c1NC(=O)c1cn2c3c(ccc(Cl)c3c1=O)OC(C)C2` (stereo not given): inactive: -5.05%.
As for `Cc1ccc(-c2nc3ncccc3o2)cc1NC(=O)c1ccc(-c2cccc(Cl)c2C)o1`, the “activity change, negative = cytotoxicity” value is inactive: 13.4%.
Next, `Cc1nc(-c2cccc(F)c2)sc1CCNC(=O)C(=O)Nc1ccc2c(c1)OCO2`: inactive: 5.57%.
As for `CCc1ccc(N2CCn3c2nc2c3c(=O)n(CCCc3ccccc3)c(=O)n2C)cc1`, the figure is inactive: -0.465%; as for `CCOc1ccc(-c2nonc2NC(=O)COc2ccccc2)cc1`, inactive: -6.34%.
As for `CCCc1cnc2c(c1SCC(=O)Nc1cccc(C)c1C)c(=O)n(C)c(=O)n2C`, the figure is inactive: 10%; as for `COc1ccc(CNC(=O)CN(c2ccc(OC)cc2)S(=O)(=O)c2c(C)[nH]c(=O)[nH]c2=O)cc1`, inactive: -8.33%; as for `Cc1ccc(-n2c(-c3ccco3)nc3c(cnn3-c3ccc(C)cc3)c2=O)cc1`, inactive: 15.9%.
As for `Cc1cc(C)cc(OCCn2c(CCNC(=O)C3CCCCC3)nc3ccccc32)c1`, the “activity change, negative = cytotoxicity” value was inactive: -0.0873%.
As for `O=C(Cc1ccccc1F)N1CCC(c2nc3c(nnn3Cc3cccc(Cl)c3)c(=O)[nH]2)CC1`, the figure is inactive: -29.3%; as for `Cn1c(=O)oc2cc(S(=O)(=O)N3CCCC(C(=O)N4CCN(c5cccc(Cl)c5)CC4)C3)ccc21` (stereo not given), inactive: -27.2%.
As for `O=C(NCCCCc1ccccc1)c1nn(-c2ccccc2)nc1CO`, the figure is inactive: 0.212%.
Take `COc1ccc(NC(=O)Cn2nnc(C(=O)Nc3ccc(C)c(F)c3)c2N)cc1Cl`: the “activity change, negative = cytotoxicity” value was inactive: -1.23%.
Next, `CC1=C(C(=O)OCC2CCCCC2)C(c2cccc(F)c2F)CC(=O)N1` (stereo not given): inactive: 10.4%; `CCc1ccc(Cn2nnc(C(=O)Nc3ccc(C)cc3)c2N)cc1`: inactive: -0.408%.
Next, `CC(C)c1ccc(NC(=O)C2CCCN(S(=O)(=O)c3ccc4[nH]c(=O)ccc4c3)C2)cc1` (stereo not given): inactive: 6.52%; `CCOC(=O)c1ccc2c(c1)N(CC(=O)Nc1ccc(CC)cc1)C(=O)c1ccccc1S2`: inactive: 10%; `COc1cc(NC(=O)Cn2cnc3sc(C)c(S(=O)(=O)N4CCN(C)CC4)c3c2=O)cc(OC)c1OC`: inactive: 2.58%.
As for `Cc1ccc(Nc2c(-c3ccc(N4CCOCC4)cc3)nc3ncccn23)cc1C`, the figure is inactive: -18.1%.
For `CCCN(CCC)CCCNC(=O)c1cn(CC)c2ccc(S(=O)(=O)N3CCc4ccccc4C3)cc2c1=O`, the “activity change, negative = cytotoxicity” value is inactive: -1.33%.
Take `COc1cccc(CNCCSc2nnnn2C)c1OCc1ccc(Cl)cc1`: the “activity change, negative = cytotoxicity” value was inactive: -17.9%.
As for `CCOc1cccc(C(=O)Nc2ccc(NC(=O)c3ccc(Br)cc3)cc2)c1`, the figure is inactive: -11.4%; as for `CCOC(=O)c1ccc(NC(=O)CC2C(=O)N(c3ccccc3)C(=O)N2C2CCCCC2)cc1` (stereo not given), inactive: -2.45%.
For `CCN(c1ccc(C)cc1C)S(=O)(=O)c1nnc(NC(=O)c2ccccc2OC)s1`, the “activity change, negative = cytotoxicity” value is inactive: -18.1%.
As for `O=C(CSc1oc(-c2ccco2)nc1S(=O)(=O)c1ccccc1)c1ccc(Cl)cc1`, the “activity change, negative = cytotoxicity” value was inactive: -6.02%.
In the case of `Cn1c(SCc2ccc(F)cc2)nc2ccc(C(=O)NCc3ccccc3)cc21`, the “activity change, negative = cytotoxicity” value is inactive: 4.91%.
Next, `CCCCn1cc(S(=O)(=O)c2ccc(Cl)cc2)c(=O)c2cc(F)c(N3CCCCC3)cc21`: inactive: -3.99%; `Cc1cc(C)c2oc(C(=O)Nc3c(C(=O)Nc4ccccc4)oc4ccccc34)cc(=O)c2c1`: inactive: 6.3%.
As for `COc1cccc(N2C(=O)CSC23C(=O)N(CC(=O)NCc2ccc(C)cc2)c2ccccc23)c1` (stereo not given), the figure is inactive: -2.56%; as for `CSC1=NC2(CCN(C(=O)NC3CCCCC3)CC2)N=C1c1ccc(C(C)(C)C)cc1`, inactive: -12.5%.
Next, `O=C(C1CCN(c2nc3ccccc3[nH]2)CC1)N1CCN(c2cccc(Cl)c2)CC1`: inactive: -11.7%; `CCc1ccc2occ(CC(=O)Nc3sc4c(c3C(=O)OC)CCC4)c2c1`: inactive: 0.988%; `COc1ccccc1CNC(=O)c1c(O)nc2cc(C)ccn2c1=O`: inactive: -1.11%.
Consider `Cc1nc2ccc(S(=O)(=O)NC(C(=O)NCc3ccc(Cl)cc3)C(C)C)cc2s1` (stereo not given), for which the “activity change, negative = cytotoxicity” value was inactive: 0.993%.
For the molecule `Cc1cccc(C(=O)Nc2ccccc2C(=O)OCc2cc(=O)n3nc(C4CC4)sc3n2)c1`, the “activity change, negative = cytotoxicity” value was inactive: 7%.
Next, `CCOC(=O)c1c(-c2ccc(OC)c(OC)c2)csc1NC(=O)c1ccc(F)cc1`: inactive: 15.2%.
As for `CC(C)Oc1ccc(CNC(=O)Cn2ncn3nc(-c4cccs4)cc3c2=O)cc1`, the figure is inactive: -4.62%.
As for `COC(=O)c1ccccc1-n1c(CCC(=O)O)ccc1-c1ccccc1`, the figure is inactive: -3.04%.
Consider `COc1cccc(CNC(=O)c2ccc3c(c2)nc2n3CCC(C)C2)c1OC` (stereo not given), for which the “activity change, negative = cytotoxicity” value was inactive: 16.6%.
Take `Cc1ccnc(NS(=O)(=O)c2ccc(NC(=O)c3nc(SC(C)C)ncc3Cl)cc2)n1`: the “activity change, negative = cytotoxicity” value is inactive: 7.26%.
As for `COc1ccc(C(=O)NCC(c2ccco2)S(=O)(=O)c2cccs2)cc1OC` (stereo not given), the figure is inactive: -20.5%; as for `CCc1ccccc1NC(=O)C(=O)NCCc1sc(-c2cccc(F)c2)nc1C`, inactive: 8.9%.
Next, `CCOc1ccc(CCNC(=O)c2cc3sc(CC)cc3n2C)cc1OCC`: inactive: -4.47%.
As for `Cc1ccc(S(=O)(=O)c2cn(Cc3ccc(F)cc3)c3cc(N4CCCC4)c(F)cc3c2=O)cc1`, the figure is inactive: 0.224%.
For `Cc1[nH]c2ccccc2c1SCCNC(=O)c1ccccc1F`, the “activity change, negative = cytotoxicity” value was inactive: -1.11%.
As for `Cc1ccc(-n2ncc3c(NCC(C)C)ncnc32)c(C)c1`, the figure is inactive: -1.48%; as for `COc1ccccc1-c1cc2nc(C)c(CCC(=O)Nc3cc(C)ccc3C)c(C)n2n1`, inactive: -1.06%.
Next, `CCc1ccc(NC(=O)Cn2cnc3sc(C)c(S(=O)(=O)N4CCN(c5ccccc5OC)CC4)c3c2=O)cc1`: inactive: -1.37%.
As to `CCC(C)NC(=O)CCc1c(C)nc2cc(-c3ccc(OC)cc3OC)nn2c1C` (stereo not given), the “activity change, negative = cytotoxicity” value is inactive: 2.41%.
Next, `O=C(CSc1nc2c(c(=O)[nH]1)CN(Cc1ccc3c(c1)OCO3)CC2)Nc1ccc(F)c(F)c1`: inactive: 2.58%; `Cc1ccc(C)c(NC(=O)Nc2cccc(-c3cn4cccnc4n3)c2)c1`: inactive: -11.2%; `COc1ccc(-n2nnc(-c3nc(-c4cccs4)no3)c2N)cc1`: inactive: 1.64%.
